Over roughly 1,800 sequences, “median log2 fold change of GCK-ALFA target abundance (FLAG IP / Myc IP barcode read proportion)” has its median near 0.14; the lowest 2% begin near -0.84. The list shows a part of the results.
T1: TRAF2, Q12933
T1 chain: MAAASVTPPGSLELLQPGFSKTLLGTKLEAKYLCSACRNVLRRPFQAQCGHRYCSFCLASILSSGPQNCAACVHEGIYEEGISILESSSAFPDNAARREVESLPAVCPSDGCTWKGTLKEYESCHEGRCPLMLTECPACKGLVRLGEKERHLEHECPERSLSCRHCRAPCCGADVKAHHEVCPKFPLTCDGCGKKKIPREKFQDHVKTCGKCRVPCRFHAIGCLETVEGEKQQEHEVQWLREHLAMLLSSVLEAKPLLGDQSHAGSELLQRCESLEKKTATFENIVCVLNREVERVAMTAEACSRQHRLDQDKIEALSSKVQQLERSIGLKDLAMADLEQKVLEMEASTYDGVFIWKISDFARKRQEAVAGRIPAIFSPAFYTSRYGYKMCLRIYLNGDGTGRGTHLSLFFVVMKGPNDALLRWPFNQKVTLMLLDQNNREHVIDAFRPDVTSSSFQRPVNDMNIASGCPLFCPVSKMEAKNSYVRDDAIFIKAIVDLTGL

B1: traf2_out_20_3_2236 (protein)
chain: EELKKKAKEALEEARKLLEQAEPLLEPEDAAKLRELLEKAEEYFETDYKDALVELSALKRAALAAAERARAAGDEETAALLEELADATNKAMHYIYLIIE
B2: traf2_out_17_178_1708 (protein)
chain: TKEEARKRISEATDEMIDLAEEAAARLLEIAEREGSLSPEELAALRRARRLGSARTTIALMERAIPRLRSAEEVRALLEELKARYRELSKEIAEALEKYE
B3: traf2_out_18_3_1945 (protein)
chain: KEEKLKELSEKIDKVYDDAAEYILKKAKELAEKDPRFKPALEEVEKLIKQGHLFGQLANTLIDHLKKLGYEEEAAEVEAYYSEKSKEISKLLDEYEKIRK
B4: traf2_out_14_17_1292 (protein)
chain: EIIKELEKIAKTAKELAKKLPELKLELGQLARKAESALVLAEMYEEDPSYKPELLQALKNLLKLAKEVAEKVKPISEEAVKELNKIAETAKKILEKVEKE
B5: traf2_out_16_171_1442 (protein)
chain: MEKEKEEELKKEIEEEAARLIARMETAVEMTPLISKETGLTVEQIAAGFRSTMTDRIAAFREHFLKKAADMSEEVKEFIEEQVARLEAALDAAVAAILAK
B6: traf2_out_11_169_782 (protein)
chain: KEKEFNRKLNDFALEQNDEAKEKLKEFALKLAEEEGLDVEEIKAIFEANKGKSLSAIASALIDYYRSKGREDAAEEVLEKYEELKEEINKKVTEKIKELE
B7: traf2_out_15_181_1334 (protein)
chain: MTPEEKAAKVAELKKQIEEKKAEAEKYLKEADAVKDTDLTDALVYYSEAKRKYLEIAELYRKIAELTGDEATYAKKIEEAEKKAEELNKKMNEIYKKIEA
B8: traf2_out_20_3_2235 (protein)
chain: EELKEKLKEELKRAEKLLEEIAPRLPPEDAARLRALLEEAKKYFEKDYKDALVELSALRRAALEAAERARAAGDEETAALLEELADEVNKAMHYAYKIIE
B9: traf2_out_20_154_1995 (protein)
chain: PSDEEIDEVSDKLVEASAKRRAALIAIEMLKNPERREEILAEAREHYKNDEVMMAALDEAVAAIEAGATLEEFEAKAEEYQKKAEELGDKLEELLAERRA
B10: traf2_out_20_3_2093 (protein)
chain: EELLEELRRALERAEKLLKEAIELADPETAARLKELLARLKEARELPLEDQLVALSEVRRELLRLAEEARAAGREELAKLLEEAAEEVNRAMNLAYKIIE
B11: traf2_out_15_48_1353 (protein)
chain: ETKKLRETARKVNDLFDATLDAVAEELRALLPELPPELRPLAEAAIREATVRGSINDTIALLDEAIARADPETAARLQALRDRLLATKKEASKLMNETLK
B12: traf2_out_14_166_1281 (protein)
chain: MTEEEIERIKEIVDKLEPLNDAAVARAAAIIEANRDKLSPEDLARLNHLLDIARRNIGSSAINAFLQMAEIFAAAGLEEAAAAFRALAEELQAKLSELNK
B13: traf2_out_20_3_2052 (protein)
chain: EELLEEAEKLRKELEEKIEEIKKLVPPEDAKELEELLKRVEEARKKGLEEELVALSELRRRLLELAERARAEGREEVAELLEEAAELVQKLMNVVYKIIE
B14: traf2_out_1_158_924 (protein)
chain: DSLNNLILSVVRLIGEFAVDNALERGDEELAEKLREFSEEVEKLVKKLLVEEKKSVEELIEKIREIGERFKEGQDPETAEAIERTSRQIISGIRQAAKLH
B15: traf2_out_18_167_1833 (protein)
chain: EEEIEKKKNELSDEMVKASERRRAALAVLVALDRDPEAEAAALARLRAVTADDPEVQAELAALETLPPEERRAALRAFAERLAEREQKKLNELYKEYESL
B16: traf2_out_1_158_910 (protein)
chain: STDVGLLASSVTAVLDVWAEEARERGLEEAAALFEELRKEVLELYEENKDISLEEFAEKVLELVDRWEERAKALSPEERAAVERAFRQIRSAVEQVVKLA
B17: traf2_out_18_3_1946 (protein)
chain: SEEERKKYSEKLDEVFDDTGAEILARARALVAEDPRFQPALDAIEAIAARGPRPATMANTLIDALRALGYEEEAAAVEEYYSEKAKEASELIKKYEEAIK
B18: traf2_out_6_156_2454 (protein)
chain: SLEEILKEAKEKIKKEIEELSKASEEKKISYISKIAGAAYRALQKAREAGASLEELKKFAEELKKTAKEEAEKAGLDEDTKNLLLSSLNAVFDVALEEAK
B19: traf2_out_11_169_865 (protein)
chain: EEEEKNRKLIDFALEVEDKAKEELKKFALELAKEAGLDVAEVEAIFEANKNSSLSAVAAALIEYFKSKGKEEEAEKILKKHDELKEKINKEVSEKIKELE

Target: T1, TRAF2, Q12933
Experiment: median log2 fold change of GCK-ALFA target abundance (FLAG IP / Myc IP barcode read proportion) (log2 ratio); each designed protein is fused to an ALFA-tag nanobody in HEK293 cells to bring the named protein to FLAG-tagged glucokinase (GCK); Myc marks an untargeted standard; higher = target protein stabilised (more abundant)
Settings: target protein: 3xFLAG-MCP-GCK-ALFA reporter; HEK293 landing pad (RPLP)
Summary of the method: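 The readout is target abundance, the per-binder median log2 ratio of FLAG to Myc barcode read proportions. It came from HEK293 landing-pad cells carrying a recombined ALFA-nanobody-fused binder library, induced with 2 μg mL^−1 doxycycline and transfected with a plasmid for a FLAG-tagged target and a Myc-tagged standard. After 48 h, lysates were immunoprecipitated with anti-FLAG and anti-Myc, and circular RNA barcodes were reverse transcribed, amplified and sequenced. Each barcode needed a proportion of at least 10^−7 in both replicates and each binder at least 3 barcodes per replicate, a pseudocount of 10^−6 was added, and the replicates were pooled.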

| Binder | median log2 fold change |
| --- | --- |
| B1 | 0.298 |
| B2 | -0.184 |
| B3 | -0.138 |
| B4 | 0.148 |
| B5 | 0.155 |
| B6 | 0.157 |
| B7 | -0.0159 |
| B8 | 0.39 |
| B9 | 0.276 |
| B10 | -0.00848 |
| B11 | 0.138 |
| B12 | 0.323 |
| B13 | 0.18 |
| B14 | -0.17 |
| B15 | 0.333 |
| B16 | 0.18 |
| B17 | 0.267 |
| B18 | 0.274 |
| B19 | -0.406 |

From the supplement of paper PMC12632987
